# Measurements as given in the supplement of paper PMC8728848.
# The list shows a part of the results.
# B1: Epa15 (Candida glabrata) (protein)
# chain: MGSSHHHHHHSSGLVPRGSHMASDPTTFPLGCSPEFTKTKKGLSMELYRYDYLPPGSYPCWDSAYLNPSYPRTGYKAKKLIATVDGVSGDINFKFNPKFGCKAIPDYLPSNFNYHEPITITNFTMILYGYFMPKTTAFHTFYVTADDLLFMNFGAGNAFDCCRREETADKFGNYAAYSVWGKKSLKNELTVYLHTGVYYPIRLFYNNRDYIAQLDIRFKTEHSNAIITNFTDYFYSVDDSSLGCPGLI
# Legend:
# Assay in all cases: glycan array binding signal (z-score within array); higher = stronger binding
# Conditions in all cases: glycan notation: IUPAC condensed, linker removed
# [1] = molecular target: GlcNAc(b1-3)Gal(b1-4)GlcNAc(b1-2)Man(a1-3)[GlcNAc(b1-3)Gal(b1-4)GlcNAc(b1-2)Man(a1-6)]Man(b1-4)GlcNAc(b1-4)[Fuc(a1-6)]GlcNAc
# Summary of the method: (§1)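 Negative Z-scores can be read as non-binding. The Z-score is calculated within each array and then averaged across arrays of one protein sequence at different concentrations or buffers and across linkers. Arrays, 3228 in all, were curated from the Consortium for Functional Glycomics database and kept only where the protein sequence was available.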
# [2] = molecular target: GlcNAc(b1-3)Gal(b1-4)GlcNAc(b1-2)[GlcNAc(b1-3)Gal(b1-4)GlcNAc(b1-6)]Man(a1-6)[GlcNAc(b1-3)Gal(b1-4)GlcNAc(b1-2)Man(a1-3)]Man(b1-4)GlcNAc(b1-4)GlcNAc
# Summary of the method: as §1
# [3] = molecular target: GlcNAc(b1-3)Gal(b1-4)GlcNAc(b1-3)Gal(b1-4)GlcNAc
# Summary of the method: as §1
# [4] = molecular target: GlcNAc(b1-3)Gal(b1-4)GlcNAc(b1-3)Gal(b1-4)GlcNAc(b1-2)Man(a1-3)[GlcNAc(b1-3)Gal(b1-4)GlcNAc(b1-3)Gal(b1-4)GlcNAc(b1-2)Man(a1-6)]Man(b1-4)GlcNAc(b1-4)GlcNAc
# Summary of the method: as §1
# [5] = molecular target: GlcNAc(b1-3)Gal(b1-4)GlcNAc(b1-3)Gal(b1-4)GlcNAc(b1-2)Man(a1-3)[GlcNAc(b1-3)Gal(b1-4)GlcNAc(b1-3)Gal(b1-4)GlcNAc(b1-2)Man(a1-6)]Man(b1-4)GlcNAc(b1-4)[Fuc(a1-6)]GlcNAc
# Summary of the method: as §1
# [6] = molecular target: GlcNAc(b1-3)Gal(b1-4)GlcNAc(b1-3)Gal(b1-4)GlcNAc(b1-2)[GlcNAc(b1-3)Gal(b1-4)GlcNAc(b1-3)Gal(b1-4)GlcNAc(b1-6)]Man(a1-6)[GlcNAc(b1-3)Gal(b1-4)GlcNAc(b1-3)Gal(b1-4)GlcNAc(b1-2)Man(a1-3)]Man(b1-4)GlcNAc(b1-4)[Fuc(a1-6)]GlcNAc
# Summary of the method: as §1
# [7] = molecular target: GlcNAc(b1-3)Gal(b1-4)GlcNAc(b1-3)Gal(b1-4)GlcNAc(b1-3)Gal(b1-4)GlcNAc(b1-2)Man(a1-3)[GlcNAc(b1-3)Gal(b1-4)GlcNAc(b1-3)Gal(b1-4)GlcNAc(b1-3)Gal(b1-4)GlcNAc(b1-2)Man(a1-6)]Man(b1-4)GlcNAc(b1-4)GlcNAc
# Summary of the method: as §1
# [8] = molecular target: GlcNAc(b1-3)Gal(b1-4)GlcNAc(b1-3)Gal(b1-4)GlcNAc(b1-3)Gal(b1-4)GlcNAc(b1-2)Man(a1-3)[GlcNAc(b1-3)Gal(b1-4)GlcNAc(b1-3)Gal(b1-4)GlcNAc(b1-3)Gal(b1-4)GlcNAc(b1-2)Man(a1-6)]Man(b1-4)GlcNAc(b1-4)[Fuc(a1-6)]GlcNAc
# Summary of the method: as §1
# [9] = molecular target: GlcNAc(b1-3)Gal(b1-4)GlcNAc(b1-3)Gal(b1-4)GlcNAc(b1-3)Gal(b1-4)GlcNAc(b1-2)[GlcNAc(b1-3)Gal(b1-4)GlcNAc(b1-3)Gal(b1-4)GlcNAc(b1-3)Gal(b1-4)GlcNAc(b1-6)]Man(a1-6)[GlcNAc(b1-3)Gal(b1-4)GlcNAc(b1-3)Gal(b1-4)GlcNAc(b1-3)Gal(b1-4)GlcNAc(b1-2)Man(a1-3)]Man(b1-4)GlcNAc(b1-4)[Fuc(a1-6)]GlcNAc
# Summary of the method: as §1
# [10] = molecular target: GlcNAc(b1-3)Gal(b1-4)GlcNAc(b1-3)Gal(b1-4)GlcNAc(b1-3)Gal(b1-4)GlcNAc(b1-3)Gal(b1-4)GlcNAc(b1-2)Man(a1-3)[GlcNAc(b1-3)Gal(b1-4)GlcNAc(b1-3)Gal(b1-4)GlcNAc(b1-3)Gal(b1-4)GlcNAc(b1-3)Gal(b1-4)GlcNAc(b1-2)Man(a1-6)]Man(b1-4)GlcNAc(b1-4)GlcNAc
# Summary of the method: as §1
# [11] = molecular target: GlcNAc(b1-3)Gal(b1-4)GlcNAc(b1-3)Gal(b1-4)GlcNAc(b1-3)Gal(b1-4)GlcNAc(b1-3)Gal(b1-4)GlcNAc(b1-2)Man(a1-3)[GlcNAc(b1-3)Gal(b1-4)GlcNAc(b1-3)Gal(b1-4)GlcNAc(b1-3)Gal(b1-4)GlcNAc(b1-3)Gal(b1-4)GlcNAc(b1-2)Man(a1-6)]Man(b1-4)GlcNAc(b1-4)[Fuc(a1-6)]GlcNAc
# Summary of the method: as §1
# [12] = molecular target: GlcNAc(b1-3)Gal(b1-4)GlcNAc(b1-3)Gal(b1-4)GlcNAc(b1-3)Gal(b1-4)GlcNAc(b1-3)Gal(b1-4)GlcNAc(b1-2)[GlcNAc(b1-3)Gal(b1-4)GlcNAc(b1-3)Gal(b1-4)GlcNAc(b1-3)Gal(b1-4)GlcNAc(b1-3)Gal(b1-4)GlcNAc(b1-6)]Man(a1-6)[GlcNAc(b1-3)Gal(b1-4)GlcNAc(b1-3)Gal(b1-4)GlcNAc(b1-3)Gal(b1-4)GlcNAc(b1-3)Gal(b1-4)GlcNAc(b1-2)Man(a1-3)]Man(b1-4)GlcNAc(b1-4)[Fuc(a1-6)]GlcNAc
# Summary of the method: as §1
# [13] = molecular target: GlcNAc(b1-3)Gal(b1-4)GlcNAc(b1-3)Gal(b1-4)GlcNAc(b1-3)GalNAc
# Summary of the method: as §1
# [14] = molecular target: GlcNAc(b1-3)Gal(b1-4)GlcNAc(b1-3)GalNAc
# Summary of the method: as §1
# [15] = molecular target: GlcNAc(b1-3)Gal(b1-4)GlcNAc(b1-3)[GlcNAc(b1-3)Gal(b1-4)GlcNAc(b1-3)]GalNAc
# Summary of the method: as §1
# [16] = molecular target: GlcNAc(b1-3)Gal(b1-4)GlcNAc(b1-6)[Gal(b1-3)]GalNAc
# Summary of the method: as §1
# [17] = molecular target: GlcNAc(b1-3)Gal(b1-4)GlcNAc(b1-6)[GlcNAc(b1-3)Gal(b1-3)]GalNAc
# Summary of the method: as §1
# [18] = molecular target: GlcNAc(b1-3)Gal(b1-4)GlcNAc(b1-6)[GlcNAc(b1-3)]Gal(b1-4)GlcNAc
# Summary of the method: as §1
# GlcNAc(b1-3)GalNAc = molecular target: GlcNAc(b1-3)GalNAc
# Summary of the method: as §1
# GlcNAc(b1-3)Man = molecular target: GlcNAc(b1-3)Man
# Summary of the method: as §1
# [19] = molecular target: GlcNAc(b1-3)[GlcNAc(b1-4)][GlcNAc(b1-6)]GlcNAc
# Summary of the method: as §1
# [20] = molecular target: GlcNAc(b1-3)[GlcNAc(b1-6)]Gal(b1-4)GlcNAc
# Summary of the method: as §1
# [21] = molecular target: GlcNAc(b1-3)[GlcNAc(b1-6)]GalNAc
# Summary of the method: as §1
# [22] = molecular target: GlcNAc(b1-3)[GlcNAc(b1-6)]GlcNAc
# Summary of the method: as §1
# [23] = molecular target: GlcNAc(b1-4)Gal(b1-4)GlcNAc
# Summary of the method: as §1
# GlcNAc(b1-4)GlcNAc = molecular target: GlcNAc(b1-4)GlcNAc
# Summary of the method: as §1
# [24] = molecular target: GlcNAc(b1-4)GlcNAc(b1-4)GlcNAc
# Summary of the method: as §1
# [25] = molecular target: GlcNAc(b1-4)GlcNAc(b1-4)GlcNAc(b1-4)GlcNAc(b1-4)GlcNAc
# Summary of the method: as §1
# [26] = molecular target: GlcNAc(b1-4)GlcNAc(b1-4)GlcNAc(b1-4)GlcNAc(b1-4)GlcNAc(b1-4)GlcNAc
# Summary of the method: as §1
# [27] = molecular target: GlcNAc(b1-4)[GlcNAc(b1-6)]GalNAc
# Summary of the method: as §1
# [28] = molecular target: GlcNAc(b1-6)Gal(b1-4)GlcNAc
# Summary of the method: as §1
# GlcNAc(b1-6)GalNAc = molecular target: GlcNAc(b1-6)GalNAc
# Summary of the method: as §1
# [29] = molecular target: GlcNAc6S(b1-3)Gal(b1-4)GlcNAc
# Summary of the method: as §1
# Kdn(a2-3)Gal(b1-3)GalNAc = molecular target: Kdn(a2-3)Gal(b1-3)GalNAc
# Summary of the method: as §1
# Kdn(a2-3)Gal(b1-3)GlcNAc = molecular target: Kdn(a2-3)Gal(b1-3)GlcNAc
# Summary of the method: as §1
# Kdn(a2-3)Gal(b1-4)Glc = molecular target: Kdn(a2-3)Gal(b1-4)Glc
# Summary of the method: as §1
# Kdn(a2-3)Gal(b1-4)GlcNAc = molecular target: Kdn(a2-3)Gal(b1-4)GlcNAc
# Summary of the method: as §1
binder,measurement,setting,value
B1,glycan array binding signal (z-score),[1],0.2
same,glycan array binding signal (z-score),[2],0.605
same,glycan array binding signal (z-score),[3],-0.507
same,glycan array binding signal (z-score),[4],0.271
same,glycan array binding signal (z-score),[5],0.052
same,glycan array binding signal (z-score),[6],0.174
same,glycan array binding signal (z-score),[7],0.304
same,glycan array binding signal (z-score),[8],0.25
same,glycan array binding signal (z-score),[9],0.235
same,glycan array binding signal (z-score),[10],-0.399
same,glycan array binding signal (z-score),[11],0.615
same,glycan array binding signal (z-score),[12],0.574
same,glycan array binding signal (z-score),[13],-0.295
same,glycan array binding signal (z-score),[14],-0.062
same,glycan array binding signal (z-score),[15],0.113
same,glycan array binding signal (z-score),[16],-0.125
same,glycan array binding signal (z-score),[17],-0.188
same,glycan array binding signal (z-score),[18],-0.516
same,glycan array binding signal (z-score),GlcNAc(b1-3)GalNAc,-0.52
same,glycan array binding signal (z-score),GlcNAc(b1-3)Man,-0.578
same,glycan array binding signal (z-score),[19],-0.536
same,glycan array binding signal (z-score),[20],-0.382
same,glycan array binding signal (z-score),[21],-0.581
same,glycan array binding signal (z-score),[22],-0.28
same,glycan array binding signal (z-score),[23],-0.426
same,glycan array binding signal (z-score),GlcNAc(b1-4)GlcNAc,-0.491
same,glycan array binding signal (z-score),[24],-0.534
same,glycan array binding signal (z-score),[25],0.079
same,glycan array binding signal (z-score),[26],-0.023
same,glycan array binding signal (z-score),[27],-0.458
same,glycan array binding signal (z-score),[28],0.77
same,glycan array binding signal (z-score),GlcNAc(b1-6)GalNAc,-0.36
same,glycan array binding signal (z-score),[29],0.004
same,glycan array binding signal (z-score),Kdn(a2-3)Gal(b1-3)GalNAc,-0.011
same,glycan array binding signal (z-score),Kdn(a2-3)Gal(b1-3)GlcNAc,-0.172
same,glycan array binding signal (z-score),Kdn(a2-3)Gal(b1-4)Glc,0.002
same,glycan array binding signal (z-score),Kdn(a2-3)Gal(b1-4)GlcNAc,-0.317
